Results from PubChem BioAssay AID624296 (National Center for Advancing Translational Sciences (NCATS), 2012).
Hit rate of the full screen: of about 350,000 compounds, about 9,900 (2.8%) were called active. Inconclusive results, whose numbers are uncertain, are shown with a selection of clear calls. Calls follow the shape of the dose curve; as a rule, active = well fitted activation curve with a large enough effect; inconclusive = small, poorly fitted or top-dose-only effect; inactive = no such curve, though single readings can be large or run the other way. Potencies of inconclusive entries are left out as doubtful fits.

Test: A quantitative high throughput screen for small molecules that induce DNA re-replication in MCF 10a normal breast cells. Also: nearly all actives have a fitted effect of over 50% in size. As to activity, positive = re-replication: % of control where 0% means no effect.
Conditions: MCF 10A DNA re-replication, Hoechst nuclear intensity, 48 h; activity, positive = re-replication: at 46.1 µM (top of the series)
Potency is read from the fitted curve at half-maximal effect; tags tell the direction and shape of the fitted curve.

Compound	Potency	activity, positive = re-replication
COC(=O)CSc1nc2ccccc2nc1SCC(=O)OC	active: 23.1 µM	
CCc1c(C)c2c(C)nn(-c3ccccc3)c2[nH]c1=O	inconclusive [activator, partial curve, poor fit]	
COc1cc(OC)cc(C2=NC3(CCC(C)CC3)NC2=S)c1 (stereo not given)	inconclusive [activator, partial curve, poor fit]	
CCN(CC)CCN(C(=O)CCS(=O)(=O)c1ccccc1)c1nc2cc(OC)c(OC)cc2s1		inactive: 5.77%
Nc1nnnn1/N=C/c1cc(Cl)cc(Cl)c1O	inconclusive [activator, single point]	
Cc1ccc(C(CNS(=O)(=O)c2cc(F)ccc2F)N2CCN(C)CC2)cc1 (stereo not given)		inactive: 0.64%
COc1ccc(NC(=O)C(=O)NCC(=O)Nc2cccc(C(F)(F)F)c2)cc1		inactive: -3.28%
CC(C)(C)NC(=O)CN(C(=O)CSc1nnc(COc2ccccc2)o1)c1cccc(F)c1	inconclusive [activator, partial curve]	
Cc1occc1C(=O)N1CCCC(N2CCN(c3cccc(Cl)c3)CC2)C1 (stereo not given)	inconclusive [activator, single point]	
CCOc1ccc(NC(=S)N(CCc2c(C)[nH]c3ccc(C)cc23)Cc2ccncc2)cc1	inconclusive [activator, partial curve, poor fit]	
CCOC(=O)C1CCCN(C(=O)Cc2c(C(=O)O)[nH]c3ccccc23)C1 (stereo not given)		inactive: 3.61%
Cc1cccc2cc3c(N)c(C(=O)Nc4ccc(N5CCOCC5)cc4)sc3nc12	inconclusive [activator, partial curve]	
CCC(CC)c1nnc(NC(=O)c2c(C)nn(Cc3ccccc3Cl)c2C)s1		inactive: 13.4%
CC(=O)Cn1nnc2sc3c(c2c1=O)CCC(C(C)(C)C)C3 (stereo not given)		inactive: 24.1%
Cc1cc(C)cc(N2CC(O)=C(c3nc4ccccc4c(=O)[nH]3)C2=N)c1	inconclusive [activator, partial curve, poor fit]	
O=C(COC(=O)c1ccccn1)NCc1cccs1	inconclusive [activator, partial curve, poor fit]	
Cc1nc2ccc(C(=O)N/N=C/c3ccccc3O)cc2[nH]1	inconclusive [activator, single point]	
CN1C(=O)/C(=C/c2ccc(OCc3cccc(F)c3)cc2)NC1=S	inconclusive [activator, partial curve, poor fit]	
C=CCNC(=O)C(C)N1c2cccc3cccc(c23)S1(=O)=O (stereo not given)	inconclusive [activator, single point]	
Cc1ccc(CC(=O)N(C)CC(=O)Nc2ccc(N3CCOCC3)cc2)cc1C		inactive: 1.92%
CCC(CC)C1=NN2C(=N)/C(=C\c3cc(C)n(-c4cccc(C)c4)c3C)C(=O)N=C2S1	inconclusive [activator, single point]	
CCc1ccc(OCC(=O)NC(=S)Nc2ccc(C(=O)O)cc2)cc1		inactive: -1.03%
COc1cccc(Sc2ccccc2/C=N/NC(N)=O)c1	inconclusive [activator, full curve, poor fit]	

Compound	Potency	activity, positive = re-replication
Cc1ccc(NNC(=O)c2cccs2)cc1Cl	inconclusive [activator, single point]	
Cc1cccc(S(=O)(=O)NNC(=O)Cc2cccn2C)c1	inconclusive [activator, partial curve, poor fit]	
O=C(NCCCn1ccnc1)c1ccc(N2CCCCCC2)c([N+](=O)[O-])c1	inconclusive [activator, full curve, poor fit]	
Cc1occc1C(=O)N1CCN(C(c2ccccc2)c2ccccc2)CC1	inconclusive [activator, single point]	
S=C(NCCc1ccccc1)N/N=C/c1c(Cl)cccc1Cl	inconclusive [activator, partial curve]	
N#CCCn1cc(C=C(C#N)C#N)c(-c2ccc(Cl)cc2)n1	active: 3.66 µM	
CCOc1ccc(S(=O)(=O)/N=C(\N)c2ccccc2)cc1		inactive: -4.7%
OCc1ccccc1NC(=S)Nc1cccnc1	inconclusive [activator, single point]	
Cc1cc(C)c(/C=C(\C#N)S(=O)(=O)c2ccccc2)[nH]1	active: 18.4 µM	
Cc1ccc(S(=O)(=O)NCCCCCC(=O)NCCc2ccccc2)cc1		inactive: 8.06%
C=CCSc1nccc(=O)[nH]1		inactive: -1.28%
Cc1ccc(-n2c(C)cc(C(=O)COc3c(CO)cc(F)cc3CO)c2C)cc1C	inconclusive [activator, partial curve, poor fit]	
CC1(CO)COC(c2ccccc2)=N1 (stereo not given)		inactive: -1.26%
COC(=O)[C@@]1(Cc2ccc(OC)cc2)[C@@H]2[C@@H](CC(=O)[C@H]2CC(=O)C(=O)N(C)C)CN1C(=O)c1ccccc1	inconclusive [activator, single point]	
Cc1ccc2c(c1)C(=O)C(=O)N2Cc1ccc(F)cc1	inconclusive [activator, single point]	
Cc1csc(SCC(=O)Nc2sc3c(c2C#N)CCC3)n1	inconclusive [activator, partial curve, poor fit]	
O=C(CNCc1cccnc1)Nc1cc(C(F)(F)F)ccc1N1CCOCC1		inactive: -1.75%
COc1ccc(OC)c(NC(=O)CSC2=C(C#N)C(c3ccco3)C3=C(CCCC3=O)N2)c1 (stereo not given)	inconclusive [activator, single point]	
O=C(NC(=S)N1CCN(C(c2ccccc2)c2ccccc2)CC1)c1ccc(S(=O)(=O)N2CCOCC2)cc1		inactive: 11.9%
O=C1C=C(N2CCCCC2)c2ccccc2C1=O	inconclusive [activator, partial curve, poor fit]	
NC(=O)C1CCN(c2ccc3c(c2)S(=O)(=O)c2ccccc2C3=O)CC1		inactive: 3.26%
CCNC(=S)N1CCN(S(=O)(=O)c2ccc(Cl)s2)CC1	inconclusive [activator, single point]	
